# The other results are listed elsewhere or left out.
# B1: RS-IIL (Ralstonia solanacearum) (protein)
# chain: AQQGVFTLPANTSFGVTAFANAANTQTIQVLVDNVVKATFTGSGTSDKLLGSQVLNSGSGAIKIQVSVNGKPSDLVSNQTILANKLNFAMVGSEDGTDNDYNDGIAVLNWPLG
# Experiments:
# Test in all cases: glycan array binding signal (z-score within array); higher = stronger binding
# Conditions in all cases: glycan notation: IUPAC condensed, linker removed
# [1] = target: Gal(b1-3)[Fuc(a1-4)]GlcNAc(b1-3)Gal(b1-4)[Fuc(a1-3)]GlcNAc
# How it was run: (§1)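 Glycan array data came from 3228 arrays in the Consortium for Functional Glycomics database, and only arrays with an available protein sequence were kept. Glycan names were put into IUPAC-condensed notation, and columns mapping to the same glycan were averaged. The binding signal is a within-array Z-score, averaged across arrays of one protein sequence run at different concentrations or buffers and across linkers. A negative Z-score can be read as non-binding.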
# [2] = target: Gal(b1-3)[GlcNAc(b1-6)]GalNAc
# How it was run: as §1
# [3] = target: Gal(b1-3)[Neu5Ac(a2-6)]GalNAc
# How it was run: as §1
# [4] = target: Gal(b1-3)[Neu5Ac(a2-6)]GlcNAc(b1-6)Gal(b1-4)Glc
# How it was run: as §1
# [5] = target: Gal(b1-3)[Neu5Ac(b2-6)]GalNAc
# How it was run: as §1
# [6] = target: Gal(b1-4)GalNAc(a1-3)[Fuc(a1-2)]Gal(b1-4)GlcNAc
# How it was run: as §1
# [7] = target: Gal(b1-4)GalNAc(b1-3)[Fuc(a1-2)]Gal(b1-4)GlcNAc
# How it was run: as §1
# [8] = target: Gal(b1-4)Glc
# How it was run: as §1
# [9] = target: Gal(b1-4)Glc6S
# How it was run: as §1
# [10] = target: Gal(b1-4)GlcNAc
# How it was run: as §1
# [11] = target: Gal(b1-4)GlcNAc(b1-2)Man(a1-3)[Gal(b1-4)GlcNAc(b1-2)Man(a1-6)]Man(b1-4)GlcNAc(b1-4)GlcNAc
# How it was run: as §1
# [12] = target: Gal(b1-4)GlcNAc(b1-3)Gal(b1-4)Glc
# How it was run: as §1
# [13] = target: Gal(b1-4)GlcNAc(b1-3)Gal(b1-4)GlcNAc
# How it was run: as §1
# [14] = target: Gal(b1-4)GlcNAc(b1-3)Gal(b1-4)GlcNAc(b1-3)Gal(b1-4)GlcNAc
# How it was run: as §1
# [15] = target: Gal(b1-4)GlcNAc(b1-3)Gal(b1-4)[Fuc(a1-3)]GlcNAc(b1-3)Gal(b1-4)[Fuc(a1-3)]GlcNAc
# How it was run: as §1
# [16] = target: Gal(b1-4)GlcNAc(b1-3)GalNAc
# How it was run: as §1
# [17] = target: Gal(b1-4)GlcNAc(b1-3)[Gal(b1-4)GlcNAc(b1-6)]GalNAc
# How it was run: as §1
# [18] = target: Gal(b1-4)GlcNAc(b1-6)Gal(b1-4)GlcNAc(b1-6)GalNAc
# How it was run: as §1
# [19] = target: Gal(b1-4)GlcNAc(b1-6)GalNAc
# How it was run: as §1
# [20] = target: Gal(b1-4)GlcNAc(b1-6)[Gal(b1-3)]GalNAc
# How it was run: as §1
# [21] = target: Gal3S(b1-3)GalNAc
# How it was run: as §1
# [22] = target: Gal3S(b1-3)GlcNAc
# How it was run: as §1
# [23] = target: Gal3S(b1-3)[Fuc(a1-4)]GlcNAc
# How it was run: as §1
# [24] = target: Gal3S(b1-4)Glc
# How it was run: as §1
# [25] = target: Gal3S(b1-4)Glc6S
# How it was run: as §1
# [26] = target: Gal3S(b1-4)GlcNAc
# How it was run: as §1
# [27] = target: Gal3S(b1-4)GlcNAc6S
# How it was run: as §1
# [28] = target: Gal3S6S(b1-4)GlcNAc
# How it was run: as §1
# [29] = target: Gal3S6S(b1-4)GlcNAc6S
# How it was run: as §1
# [30] = target: Gal4S(b1-4)GlcNAc
# How it was run: as §1
# [31] = target: Gal4S6S(b1-4)GlcNAc
# How it was run: as §1
# [32] = target: Gal6S(b1-4)Glc
# How it was run: as §1
# [33] = target: Gal6S(b1-4)Glc6S
# How it was run: as §1
# [34] = target: Gal6S(b1-4)GlcNAc
# How it was run: as §1
# [35] = target: GalNAc(a1-3)Gal
# How it was run: as §1
# [36] = target: GalNAc(a1-3)GalNAc
# How it was run: as §1
# [37] = target: GalNAc(b1-3)Gal(a1-4)Gal(b1-4)GlcNAc
# How it was run: as §1
# [38] = target: GalNAc(b1-3)GalNAc
# How it was run: as §1
# [39] = target: GalNAc(b1-4)GlcNAc
# How it was run: as §1
# [40] = target: Glc(a1-4)Glc
# How it was run: as §1
# [41] = target: Glc(a1-6)Glc(a1-6)Glc
# How it was run: as §1
# [42] = target: Glc(b1-4)Glc
# How it was run: as §1
# [43] = target: Glc(b1-6)Glc
# How it was run: as §1
# [44] = target: GlcA(b1-3)Gal
# How it was run: as §1
# [45] = target: GlcA(b1-6)Gal
# How it was run: as §1
# [46] = target: GlcNAc(a1-3)Gal(b1-4)GlcNAc
# How it was run: as §1
# [47] = target: GlcNAc(a1-6)Gal(b1-4)GlcNAc
# How it was run: as §1
# [48] = target: GlcNAc(b1-2)Gal(b1-3)GalNAc
# How it was run: as §1
# [49] = target: GlcNAc(b1-2)Man(a1-3)[GlcNAc(b1-2)Man(a1-6)]Man(b1-4)GlcNAc(b1-4)GlcNAc
# How it was run: as §1
# [50] = target: GlcNAc(b1-3)Gal
# How it was run: as §1
# [51] = target: GlcNAc(b1-3)Gal(b1-3)GalNAc
# How it was run: as §1
# [52] = target: GlcNAc(b1-3)Gal(b1-4)Glc
# How it was run: as §1
# [53] = target: GlcNAc(b1-3)Gal(b1-4)GlcNAc
# How it was run: as §1
# [54] = target: GlcNAc(b1-3)Gal(b1-4)GlcNAc(b1-3)Gal(b1-4)GlcNAc
# How it was run: as §1
# [55] = target: GlcNAc(b1-3)GalNAc
# How it was run: as §1
# [56] = target: GlcNAc(b1-3)[GlcNAc(b1-6)]Gal(b1-4)GlcNAc
# How it was run: as §1
# [57] = target: GlcNAc(b1-3)[GlcNAc(b1-6)]GalNAc
# How it was run: as §1
# [58] = target: GlcNAc(b1-3)[GlcNAc(b1-6)]GlcNAc(b1-4)GlcNAc
# How it was run: as §1
# [59] = target: GlcNAc(b1-4)Gal(b1-4)GlcNAc
# How it was run: as §1
# [60] = target: GlcNAc(b1-4)GlcNAc(b1-4)GlcNAc
# How it was run: as §1
# [61] = target: GlcNAc(b1-4)GlcNAc(b1-4)GlcNAc(b1-4)GlcNAc(b1-4)GlcNAc
# How it was run: as §1
# [62] = target: GlcNAc(b1-4)GlcNAc(b1-4)GlcNAc(b1-4)GlcNAc(b1-4)GlcNAc(b1-4)GlcNAc
# How it was run: as §1
# [63] = target: GlcNAc(b1-4)[GlcNAc(b1-6)]GalNAc
# How it was run: as §1
# [64] = target: GlcNAc(b1-6)Gal(b1-4)GlcNAc
# How it was run: as §1
# [65] = target: GlcNAc(b1-6)GalNAc
# How it was run: as §1
# [66] = target: Kdn(a2-3)Gal(b1-3)GlcNAc
# How it was run: as §1
# [67] = target: Kdn(a2-3)Gal(b1-4)GlcNAc
# How it was run: as §1
binder,measurement,setting,value
B1,glycan array binding signal (z-score),[1],0.765
same,glycan array binding signal (z-score),[2],-0.389
same,glycan array binding signal (z-score),[3],-0.381
same,glycan array binding signal (z-score),[4],-0.384
same,glycan array binding signal (z-score),[5],-0.388
same,glycan array binding signal (z-score),[6],-0.358
same,glycan array binding signal (z-score),[7],-0.378
same,glycan array binding signal (z-score),[8],-0.387
same,glycan array binding signal (z-score),[9],-0.387
same,glycan array binding signal (z-score),[10],-0.386
same,glycan array binding signal (z-score),[11],-0.277
same,glycan array binding signal (z-score),[12],-0.377
same,glycan array binding signal (z-score),[13],-0.388
same,glycan array binding signal (z-score),[14],-0.387
same,glycan array binding signal (z-score),[15],-0.014
same,glycan array binding signal (z-score),[16],-0.389
same,glycan array binding signal (z-score),[17],-0.389
same,glycan array binding signal (z-score),[18],-0.388
same,glycan array binding signal (z-score),[19],-0.389
same,glycan array binding signal (z-score),[20],-0.388
same,glycan array binding signal (z-score),[21],-0.384
same,glycan array binding signal (z-score),[22],-0.382
same,glycan array binding signal (z-score),[23],0.761
same,glycan array binding signal (z-score),[24],-0.382
same,glycan array binding signal (z-score),[25],-0.384
same,glycan array binding signal (z-score),[26],-0.385
same,glycan array binding signal (z-score),[27],-0.38
same,glycan array binding signal (z-score),[28],-0.388
same,glycan array binding signal (z-score),[29],-0.385
same,glycan array binding signal (z-score),[30],-0.384
same,glycan array binding signal (z-score),[31],-0.386
same,glycan array binding signal (z-score),[32],-0.378
same,glycan array binding signal (z-score),[33],-0.386
same,glycan array binding signal (z-score),[34],-0.388
same,glycan array binding signal (z-score),[35],-0.387
same,glycan array binding signal (z-score),[36],-0.381
same,glycan array binding signal (z-score),[37],-0.381
same,glycan array binding signal (z-score),[38],-0.382
same,glycan array binding signal (z-score),[39],-0.386
same,glycan array binding signal (z-score),[40],-0.266
same,glycan array binding signal (z-score),[41],-0.304
same,glycan array binding signal (z-score),[42],-0.276
same,glycan array binding signal (z-score),[43],-0.383
same,glycan array binding signal (z-score),[44],-0.387
same,glycan array binding signal (z-score),[45],-0.274
same,glycan array binding signal (z-score),[46],-0.388
same,glycan array binding signal (z-score),[47],-0.356
same,glycan array binding signal (z-score),[48],-0.385
same,glycan array binding signal (z-score),[49],-0.255
same,glycan array binding signal (z-score),[50],-0.388
same,glycan array binding signal (z-score),[51],-0.388
same,glycan array binding signal (z-score),[52],-0.383
same,glycan array binding signal (z-score),[53],-0.387
same,glycan array binding signal (z-score),[54],-0.389
same,glycan array binding signal (z-score),[55],-0.389
same,glycan array binding signal (z-score),[56],-0.382
same,glycan array binding signal (z-score),[57],-0.382
same,glycan array binding signal (z-score),[58],-0.389
same,glycan array binding signal (z-score),[59],-0.389
same,glycan array binding signal (z-score),[60],-0.388
same,glycan array binding signal (z-score),[61],-0.388
same,glycan array binding signal (z-score),[62],-0.389
same,glycan array binding signal (z-score),[63],-0.389
same,glycan array binding signal (z-score),[64],-0.377
same,glycan array binding signal (z-score),[65],-0.388
same,glycan array binding signal (z-score),[66],-0.389
same,glycan array binding signal (z-score),[67],-0.378

# — the supplement of paper PMC8728848
